Measured values from PubChem BioAssay AID1508624 (National Center for Advancing Translational Sciences (NCATS), 2021).
Screen size: about 48,000 compounds; about 120 (0.25%) were called active. Not shown: some 4% with an inconclusive outcome. Calls follow the shape of the dose curve; as a rule, active = well fitted activation curve with a large enough effect; inconclusive = small, poorly fitted or top-dose-only effect, or another doubt; inactive = no such curve, though single readings can be large or run the other way. Some of the results follow.

Experiment: Primary qHTS for Identification of Small Molecule Activators of Huntingtin-Antisense Promoter Activity; also: nearly all actives have a fitted effect of over 55% in size
Settings: HEK293 HTT-AS promoter firefly luciferase reporter (activity 0% = vehicle and -100% = no light), 24 h; series mostly up to 57.5 µM; activity change, positive = activation: at the top concentration
Outline: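 Firefly luciferase signal from promoter-reporter HEK293 cells was scaled between vehicle (0%) and zero RLU (-100%). Compounds were tested at final concentrations of up to 57.5 uM over 24 h at 37 degrees C. PTC124 at 50 uM final served as control inhibitor.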

Activity change, positive = activation, inactive:
CCCCc1c(C)nc2c(-c3ccc(OC)cc3)c(C)[nH]n2c1=O -23.7%, CCCCNC(=O)CCCn1c(=O)c2ccccc2n(Cc2cccc(Cl)c2)c1=O -36.7%, Cn1c(CN2CCCCC2)nc2cc(NC(=O)c3ccccc3Cl)ccc21 -44%, COc1ccc2nc(NC(=O)c3nc(SC(C)C)ncc3Cl)sc2c1 -8.51%, O=C(NC1CCCC1)c1cc(Nc2cccc(C(F)(F)F)c2)nc2ccccc12 -15.9%, CCC(=O)N1CCc2cc(Br)cc(S(=O)(=O)CCC(=O)N3CCN(c4ccccc4F)CC3)c21 14.6%, NC(=O)c1nc(Nc2ccccc2)sc1NC(=O)c1ccccc1Br 17.5%, CCOC(=O)c1cccc(NS(=O)(=O)c2ccc(-c3cnc(C4CC4)o3)cc2)c1 -37%, COc1cc(OC)cc(-c2cc3nc(C)c(CCC(=O)NCc4ccc(Cl)cc4)c(C)n3n2)c1 -86.5%, Cc1cc2oc(=O)cc(C)c2c2occ(-c3ccc(Cl)cc3)c12 -15.6%, Cc1cccc(N2CCN(C(=O)Cn3ncc4c5ccccc5n(C)c4c3=O)CC2)c1C -9.76%, COc1ccc(C(=O)Nc2ccc(-n3nncc3-c3ccccc3)cc2)cc1OC -6.93%, Cc1ccc2[nH]c3c(=O)n(CC(=O)N4CCCCC4)ncc3c2c1 2.08%, Clc1ccc(C(c2ccccc2)c2c[nH]c3ccccc23)s1 (stereo not given) -27.7%, Cc1ccc(C)n1-c1nnc(N2CCCC(C(=O)NCc3cccc(F)c3)C2)s1 (stereo not given) -18%, COc1ccc(OC)c(CNC(=O)C2CCN(c3nc4ccccc4nc3C(F)(F)F)CC2)c1 13.5%, Cc1ccc(-n2nc(CO)c(C(=O)NCc3cccnc3)n2)cc1 -35.5%, CCc1ccc(S(=O)(=O)c2cn(Cc3ccccc3)c3cc(F)c(F)cc3c2=O)cc1 5.78%, CCc1ccccc1Nc1nc2ccccc2c2nncn12 -11.7%, COc1cc(NC(=O)Nc2cccc(-c3noc(C)n3)c2)cc(OC)c1OC -26.6%, CCOc1ccc(-n2c(=O)c3c(C)c(C)sc3n(CC(=O)N(CC)Cc3ccccc3)c2=O)cc1 9.57%, CCC(C)n1ncn(-c2ccc(N3CCN(c4ccc(OC[C@H]5CO[C@](Cn6cncn6)(c6ccc(Cl)cc6Cl)O5)cc4)CC3)cc2)c1=O (stereo not given in full), Cc1ccc(Cl)cc1NC(=O)Cc1ccc(-n2c(C)nc3cccnc32)cc1 -14.4%, CCOc1ccc(CNc2nc3nc(C)c(Cc4ccccc4)c(=O)n3[nH]2)cc1 -9.77%, COc1ccc2c(c1)CC(C(=O)Nc1cc(Cl)ccc1C)CO2 (stereo not given) -23.5%, CCc1ccc(CNC(=O)C2Cc3cc(S(=O)(=O)N4CCCCCC4)ccc3N2C(C)=O)cc1 (stereo not given) -1.18%, COc1cc(C2c3c(oc4ccccc4c3=O)C(=O)N2c2ccccn2)cc(OC)c1OC (stereo not given) -24.3%, COc1ccc(N(Cc2cccs2)C(=O)c2ccc(OCC(C)C)cc2)cc1 -20.9%, COC(=O)[C@@H]1[C@H]2C[C@H]3c4[nH]c5ccccc5c4CCN3C[C@@H]2CC[C@@H]1O 4.75%, CCCc1nn2c(=O)cc(COC(=O)c3ccccc3NC(=O)c3cccs3)nc2s1 -3.74%, Cc1ccc(C)c(C(=O)c2c(N)c(-c3nc(-c4ccc5c(c4)OCO5)cs3)c3ccccn23)c1 -12%, Cc1cccc(NC(=O)C2CCC(CNS(=O)(=O)c3ccc(Br)s3)CC2)c1 (stereo not given) -22%, Cc1ccc(OCC(=O)Nc2ccc(Cl)c(-c3nc4ncccc4o3)c2)c(C)c1 -12.3%, COc1cccc(C2CC(=O)N(c3ccc(F)cc3)C3=C2C(=O)OC3)c1OC (stereo not given) -11.3%, COCCCNC(=O)CSc1nc2c(sc3ccccc32)c(=O)n1CCc1ccccc1 7%, COc1cc(NC(=O)CSc2nc3ccccc3nc2Cc2ccc(Cl)cc2)cc(OC)c1 -0.645%, Cc1nc2c(c(C)c1CCC(=O)NCc1ccccc1)c(=O)n(C)c(=O)n2C -3.97%, C[C@@H](Cc1cc2c(c(C(N)=O)c1)N(CCCO)CC2)NCCOc1ccccc1OCC(F)(F)F -17.3%, CCOC(=O)c1cccc(NC(=O)c2cc3c(-c4cccc(OC)c4)nn(C)c3s2)c1 -18.2%, CC(C)(C)c1ccc(OCC(=O)Nc2ccc(S(=O)(=O)Nc3ncccn3)cc2)cc1 27%, O=C1Nc2ccc(Cl)cc2C(C#CC2CC2)(C(F)(F)F)O1 (stereo not given) -29.1%, Cc1ccc(S(=O)(=O)c2nc(S(C)(=O)=O)sc2N(C)Cc2ccccc2)cc1 -17.1%, Cc1cccc(NC(=O)C2CCC(CNS(=O)(=O)c3csc(C(N)=O)c3)CC2)c1C (stereo not given) -20.1%, COc1cccc(Nc2cc(C)nc3nc(-c4ccc(Cl)cc4)nn23)c1 0.99%, N#Cc1c(N)n(-c2cccc(Cl)c2)c2nc3ccccc3nc12 -15.9%, Cc1nn2c(=O)cc(COc3ccc(/C=C(\C#N)C(=O)Nc4ccc(F)cc4)cc3)nc2s1 -3.52%, Cc1nn(C)c2c1c(-c1ccccc1)cc(=O)n2CC(=O)Nc1ccccc1C(F)(F)F -18.3%, O=C(COc1ccccc1Cl)Nc1nnc(S(=O)(=O)N2CCCCCC2)s1 -20.8%, O=C(NCCCc1nc2ccccc2n1Cc1c(F)cccc1Cl)C1CCCCC1 -8.49%, COc1ccc(C(=O)N(Cc2ccc(C(C)C)cc2)C2CCS(=O)(=O)C2)cc1 (stereo not given) -16.1%, Cc1nc2nc(SCC(=O)NCCc3ccccc3)nn2c(C)c1Cc1c(F)cccc1Cl -12.4%, Cc1ccccc1CNS(=O)(=O)c1csc(C(N)=O)c1 4.01%, Cc1ccc(C(C)C)c(OCC(=O)N2CCC(c3nc4ccccc4o3)CC2)c1 -29.8%, CCn1c(SCCOc2ccccc2F)nc2ccccc21 -0.999%, CCOc1ccccc1C(=O)Nc1ccc2c(c1)N(C)C(=O)c1ccccc1S2 -48.3%, Cc1nn(-c2ccc(N3CCOCC3)nn2)c(C)c1CCC(=O)NCc1ccc(OC(C)C)cc1 -14.2%, Cc1c(C2=CCN(S(=O)(=O)c3ccc(CC(C)C)cc3)CC2)c2ccccc2n1CC(=O)N1CCCC1 -19.8%, Cc1ccc(C)c(NC(=O)CN2C(=O)COc3ccc(Cl)cc32)c1 -25.1%, Cn1c(=O)nc2n(-c3ccc(Cl)c(Cl)c3)c3cc(Cl)ccc3cc-2c1=O -14%, O=C(Nc1c(C(=O)Nc2ccc(F)cc2)oc2ccccc12)c1ccccc1F 9.72%, CCCCNC(=O)NS(=O)(=O)c1ccc(C)cc1 -13.1%, COc1ccccc1CNC(=O)C1CCCN(c2nnc(-n3c(C)ccc3C)s2)C1 (stereo not given) -10.1%, CC1=C(C(=O)OCC2CCCCC2)C(c2ccccc2F)CC(=O)N1 (stereo not given) -35.2%, Cc1cc(O)cc2c1O[C@](C)(CCC[C@H](C)CCC[C@H](C)CCCC(C)C)CC2 -4.05%, Cc1ccc(NC(=O)Cn2c(=O)n(CCCCC(=O)NCCc3ccccc3)c(=O)c3ccccc32)c(C)c1 -1.02%, O=C(Nc1ccc(F)cc1F)c1cc(-c2ccccc2O)no1 -2.33%, Cc1nn2c(=O)cc(COC(=O)c3ccc(NC(=O)C4CCCCC4)cc3)nc2s1 -13%, COc1cc(NC(=O)Cn2nc(C(F)(F)F)c3c2CCCC3)c(OC)cc1Cl -28.4%, CCCCOC(=O)c1ccc(NC(=O)c2cc3c(=O)n4cccc(C)c4nc3n2C)cc1 -8.69%, COCCNC(=O)CCCn1c(=O)c2cc(OC)c(OC)cc2n(CC(=O)Nc2ccc(F)cc2)c1=O 2.95%, O=C(CSc1nc(=O)[nH]c2c1CCCC2)Nc1ccccc1C(F)(F)F -3.5%, CCOC(=O)C1CCN(CCC(=O)Nc2ccc(Br)c(C)c2)CC1 -0.457%, CCOc1ccc(CNC(=O)c2ccc(-c3nc(CS(=O)(=O)c4ccccc4)c(C)o3)cc2)cc1 -13.5%, Cc1nn2c(=O)cc(COC(=O)c3cccc(NC(=O)c4cccs4)c3)nc2s1 -72.8%, Cc1cccc(N(C)S(=O)(=O)c2cc3c(cc2Cl)NC(=O)CO3)c1 -16.6%, CCOc1ccc(NS(=O)(=O)c2ccc3[nH]c4c(c3c2)CCCC4)cc1 -27.8%, Cc1ccc(CNS(=O)(=O)c2ccc3c(c2)CCN3S(C)(=O)=O)cc1 -14.9%, COc1ccc(N(CC(=O)N2CCN(c3cccc(C)c3C)CC2)S(=O)(=O)c2c(C)noc2C)cc1 -30.4%, COc1ccc2nc(N(Cc3cccnc3)C(=O)c3ccc4c(c3)OCCO4)sc2c1 3.19%, CCCSc1ncc(Cl)c(C(=O)Nc2sc3c(c2C(=O)NCCOC)CCCC3)n1 -17.8%, Cc1c(Cl)cccc1NC(=O)CSc1nc(=O)n(Cc2ccccn2)c2c1CCC2 -27.7%, Cc1ccc(-c2c(C(=O)Nc3ccc(F)c(F)c3)oc(=O)c3ccccc23)cc1 -36%, CCn1cc(C(=O)NCc2ccc(C)cc2)c(=O)c2cc(S(=O)(=O)N3CCC(C)CC3)ccc21 -0.58%, CN(C)c1ccc(CNC(=O)c2cc3cc(S(=O)(=O)N4CCCCC4)ccc3n2C)cc1 -30.7%, O=C(CN1C(=O)C2CCCCN2c2ccc(C(=O)N3CCCC3)cc21)NCc1cccc(Cl)c1 (stereo not given) -30.1%, Cc1ccc(Cl)c2sc(NC(=O)CS(=O)(=O)c3ccc(Cl)cc3)nc12 -17.5%, CC(=O)[C@H]1CC[C@H]2[C@@H]3C[C@H](C)C4=CC(=O)CC[C@]4(C)[C@H]3[C@@H](O)C[C@]12C -11.3%, O=C(Nc1c(Cl)cncc1Cl)c1ccc(OC(F)F)c(OCC2CC2)c1 -15.5%, CCOc1ccc(CNS(=O)(=O)c2c(C(=O)N3CCCCCC3)c(C)n(C)c2C)cc1OC -4.68%, CCOC(=O)OC(C)OC1=C(C(=O)Nc2ccccn2)N(C)S(=O)(=O)c2ccccc21 (stereo not given) -0.427%, COc1ccc(NC(=O)c2nnn(Cc3nc(-c4cc(Br)ccc4OC)oc3C)c2C)cc1 -5.15%, CCOc1cccc(C2c3c(oc4ccc(F)cc4c3=O)C(=O)N2CCc2ccc(OC)cc2)c1 (stereo not given) -2.35%, COc1ccc(Nc2cc(C(=O)NC3CCCC3)c3ccccc3n2)c(OC)c1 -15.1%, Cc1ccc(CN(C(=O)Nc2cccc(Cl)c2)c2ccccn2)cc1 -10.2%, CCNC(=O)Cn1c(-c2cccs2)cc2ccccc21 -24.3%
